# Test results taken from PubChem BioAssay AID2546 (National Center for Advancing Translational Sciences (NCATS), 2010).
# In all, about 310,000 compounds went through this assay and about 11,000 (3.5%) were called active. Inconclusive results, whose numbers are uncertain, are shown with a selection of clear calls. Calls follow the shape of the dose curve; as a rule, active = well fitted inhibition curve with a large enough effect; inconclusive = small, poorly fitted or top-dose-only effect, or effect the other way; inactive = flat fitted curve, though single readings scatter. No potency is given beside an inconclusive call; the fits are too rough.
# Experiment: VP16 counterscreen qHTS for inhibitors of ROR gamma transcriptional activity;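 also: Gal4-VP16 expression switched on by copper sulfate through the metallothionein promoter; nearly all actives have a fitted effect of over 50% in size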
# Settings: Drosophila S2 Gal4-VP16 UAS-luciferase, luminescence, 20 h; activity, negative = inhibition: at 53.6 µM (top of the series)
# % is scaled to controls: 0 for no effect and ±100 for the full control effect; potency is read from the fitted curve at half-maximal effect; tags tell the direction and shape of the fitted curve.
SMILES,Potency,"activity, negative = inhibition"
CC1=NN(C(=O)c2ccc(Cl)cc2)C(O)(c2ccccc2)C1 (centres undefined),active: 12.6 µM,–
Cn1c(SCC(=O)N/N=C/c2cccs2)nc2ccccc21,–,inactive: 3.36% [at 0.365 µM]
Cc1cc(C)c(NC(=S)NC(=O)c2c(Cl)c(C)nn2C)c([N+](=O)[O-])c1,"inconclusive [inhibitor, single point]",–
Nc1ccn([C@@H]2O[C@H](CO)[C@@H](O)C2O)c(=O)n1 (some centres undefined),inactive,–
Cc1cccc(N2C(=O)N3[C@H](c4ccc(Cl)cc4)[C@@H]4C(=O)N(C5CCCCC5)C(=O)[C@@H]4[C@]3(Cc3ccc(Cl)cc3)C2=O)c1,–,inactive: -3.22%
O=C(NCc1ccc(F)cc1)c1cc(-c2cccs2)on1,–,inactive: -5.12%
COc1ccc(COc2ccccc2C(=O)NCc2ccccc2)cc1F,–,inactive: -29.7%
Cc1cccc(N2CCN(C(=O)CCN3C(=S)NC(C)(C)CC3C)CC2)c1C (centres undefined),"inconclusive [inhibitor, single point]",–
COc1ccc(NS(=O)(=O)c2ccc(C(=O)N3CCN(Cc4ccccc4)CC3)cc2)cc1,"inconclusive [inhibitor, single point]",–
CN1CCN(c2ccnc(-c3ccoc3)n2)CC1,–,inactive: 4.95%
COc1cc(NS(=O)(=O)c2ccc(C)cc2)ccc1-n1cnnn1,–,inactive: -13.5%
Cn1cc(Cl)c(-c2n[nH]c(=S)n2C2CCCCC2)n1,"inconclusive [inhibitor, single point]",–
CC(=O)Cn1nnc2sc3c(c2c1=O)CCC(C(C)(C)C)C3 (centres undefined),"inconclusive [activator, single point]",–
CN1C(=O)/C(=C/c2ccc(OCc3cccc(F)c3)cc2)NC1=S,"inconclusive [inhibitor, partial curve, poor fit]",–
COc1cc(O)sc1C=Nc1ccc(Cl)cc1,"inconclusive [activator, single point]",–
c1cc2c3c(cccc3c1)C(N1CCCCCC1)=N2,"inconclusive [inhibitor, single point]",–
CN(C)CCn1c(C(=O)O)cc2ccccc21,–,inactive: -6.57%
CCN(CC)C(=S)SCC(=O)Nc1nc(-c2ccccc2)c(-c2ccccc2)o1,active: 8.91 µM,–
Cc1ccc(OCC(=O)Nc2cccc(S(=O)(=O)NC3=NCCCCC3)c2)cc1C,–,inactive: -13.6%
CC(C)(C)c1ccc(C(=O)NCCOc2ccccc2)cc1,"inconclusive [inhibitor, partial curve]",–
CCOC(=O)N1CCC(NC(=O)c2cc3c(-c4cccc(OC)c4)nn(C)c3s2)CC1,"inconclusive [inhibitor, single point]",–
CCC(CC)c1nnc(NC(=O)c2c(C)nn(Cc3ccccc3Cl)c2C)s1,"inconclusive [inhibitor, single point]",–
Cc1ccc(C)n1NC(=O)c1cccs1,–,inactive: 5.97%
CC(C)Cn1c(-c2ccc(F)cc2)n[nH]c1=S,active: 10 µM,–
C=CCNC(=S)N/N=C(\C)c1cc(OC)c(OC)c(OC)c1,active: 4.47 µM,–
Cc1ccc(C(=O)CC(=O)COc2ccc(Cl)cc2)cc1,active: 10 µM,–
CC(=Nc1ccc(C)cc1)c1sc2ccccc2c1O,"inconclusive [inhibitor, single point]",–

SMILES,Potency,"activity, negative = inhibition"
Cc1cc(C)c(-c2cc(C(F)(F)F)no2)c(=O)[nH]1,–,inactive: -7.48%
Cc1nn(S(=O)(=O)c2cccs2)c(C)c1Sc1ccc([N+](=O)[O-])cc1,"inconclusive [inhibitor, single point]",–
CC(C)(C)C(=O)NC(=S)NNC(=O)c1sc2ccccc2c1Cl,active: 0.562 µM,–
CCc1nnc(NC(=O)c2ccc(S(=O)(=O)N(CC)Cc3ccccc3)cc2)o1,active: 0.112 µM,–
Cc1ccc(C)c(C(=O)Cn2ncc(Cl)c(Cl)c2=O)c1,"inconclusive [inhibitor, single point]",–
COc1ccc(CNc2ncncc2-c2cccnc2)c(OC)c1,–,inactive: 5.45%
O=C1CCC(/C=C/c2ccccc2)=NN1Cc1ccc(Cl)c(Cl)c1,–,inactive: 3.9%
CCc1ccc(OCC(=O)N2CCN(c3ccccc3F)CC2)cc1,–,inactive: 18.3%
O=C(NC(=S)N1CCN(C(c2ccccc2)c2ccccc2)CC1)c1ccc(S(=O)(=O)N2CCOCC2)cc1,active: 0.0282 µM,–
O=C(CNCc1cccnc1)Nc1cc(C(F)(F)F)ccc1N1CCOCC1,–,inactive: -11.2%
CC(=O)c1c(C)[nH]c(C(=O)Nc2cccc(C)n2)c1C,"inconclusive [inhibitor, single point]",–
CC(C)C[C@H](NC(=O)c1nc[nH]c1C(=O)NCc1ccc(CNC(=O)OC(C)(C)C)cc1)C(=O)OC(C)(C)C,"inconclusive [inhibitor, single point]",–
CCC(C)[C@H](NC(=O)Nc1ccc(Oc2ccccc2)cc1)C(=O)O (some centres undefined),–,inactive: -1.55%
Brc1ccc2[nH]c3nc(SCCN4CCOCC4)nnc3c2c1,–,inactive: 6.32%
Cc1[nH]nc2ncc(C(=O)c3ccccc3O)cc12,–,inactive: 5.43%
CCCCCCCNC1=CC(=O)CC(c2ccccc2)C1 (centres undefined),"inconclusive [inhibitor, single point]",–
Cc1ccc(NC(=O)CSc2n[nH]c(C)c2[N+](=O)[O-])cc1C,"inconclusive [inhibitor, single point]",–
COc1ccc(NC(=O)c2nc[nH]c2C(=O)N[C@@H](CC(C)C)C(=O)OC(C)(C)C)cc1,active: 15.8 µM,–
COC(=O)[C@@]1(Cc2ccc(OC)cc2)[C@@H]2[C@@H](CC(=O)[C@H]2CC(=O)C(=O)N(C)C)CN1C(=O)c1ccccc1,inactive,–
Cc1ccc(-n2c(C)cc(C(=O)COc3c(CO)cc(F)cc3CO)c2C)cc1C,"inconclusive [inhibitor, single point]",–
Cc1oc2cc3c(C(=O)N4CCCCC4)c(C)oc3cc2c1C(=O)N1CCCCC1,"inconclusive [inhibitor, partial curve]",–
N#CCCn1cc(C=C(C#N)C#N)c(-c2ccc(Cl)cc2)n1,"inconclusive [inhibitor, single point]",–
O=C(c1ccc2c3n(nc2c1)-c1ccccc1CO3)N1CCCCC1,"inconclusive [inhibitor, full curve, poor fit]",–
S=C(NCCc1ccccc1)N/N=C/c1c(Cl)cccc1Cl,active: 8.91 µM,–
O=C(COC(=O)c1cccc(Br)c1)NCCNC(=O)COC(=O)c1cccc(Br)c1,–,inactive: 1.5%
O=C(NCc1ccccc1)c1c[nH]c2ccc(F)cc2c1=O,–,inactive: 1.2%
Cc1ccc(NC(=O)NC(=O)CSc2nnc(-c3ccc(Cl)cc3Cl)n2N)c(C)c1,"inconclusive [inhibitor, partial curve, poor fit]",–

SMILES,Potency,"activity, negative = inhibition"
COc1cccc(/C=C2\SC(=S)N(CCCC(=O)Nc3cc(C)on3)C2=O)c1,active: 1.41 µM,–
NC(=O)CSc1cn(CCNC(=O)c2cccs2)c2ccccc12,–,inactive: -6.96%
CCCCn1c(N)c(-c2nc3ccccc3s2)c2c([N+](=O)[O-])nn(CC)c(=O)c21,–,inactive: 4.12%
CC(NCc1ccc(-c2ccccc2)cc1)C(O)c1ccccc1 (centres undefined),active: 2.82 µM,–
CC(=O)Nc1ccc(NC(=O)C(C)OC(=O)/C=C/c2cn(-c3ccccc3)nc2-c2cccnc2)cc1 (centres undefined),"inconclusive [inhibitor, single point]",–
CC12CC3(C)CC(C)(C1)CC(C(=O)NC(=S)N1CCOCC1)(C2)C3,"inconclusive [inhibitor, single point]",–
O=C(CSc1nc2sc3c(c2c(=O)n1-c1ccccc1)CCCC3)N/N=C/c1ccc(C(=O)O)cc1,–,inactive: -6.01%
O=C(Oc1cccc(C(=S)N2CCOCC2)c1)c1ccc([N+](=O)[O-])cc1[N+](=O)[O-],"inconclusive [inhibitor, single point]",–
CCOC(CNC(=O)c1ccc2c(c1)ncn2-c1ccccc1OC)OCC,–,inactive: -11.4%
O=C(CNC(=O)c1cccc(F)c1)N/N=C/c1cccs1,–,inactive: 4.94%
O=C(O)c1ccccc1OC(=O)C12CC3CC(CC(C3)C1)C2,–,inactive: 2.43%
CCOc1cccc(/C=N/N2C(=O)CSC2=S)c1O,active: 12.6 µM,–
O=C(NC(=S)NCc1ccccc1)c1cccc([N+](=O)[O-])c1,active: 5.62 µM,–
N#CC(C(=O)Nc1cccc(Cl)c1)=C1Nc2ccccc2N1,"inconclusive [inhibitor, single point]",–
COc1ccc(C/C(C)=N/NC(=S)Nc2ccccc2F)cc1,–,inactive: -4.5%
CC(C)NC(=S)NNc1nc2ccccc2s1,active: 3.98 µM,–
Cc1[nH]n(S(=O)(=O)c2ccccc2)c(=O)c1N=Nc1cccc(Cl)c1,"inconclusive [inhibitor, single point]",–
Cc1ccc(C)c(N2CCN(C(=O)Nc3ccc4c(c3)N(C)C(=O)CS4)CC2)c1,"inconclusive [inhibitor, single point]",–
Cc1ccc(C)c(C(=O)COc2ccc(C)nc2[N+](=O)[O-])c1,"inconclusive [inhibitor, single point]",–
CC1=C(C(=O)OC(C)C)C(c2ccccc2)NC(=O)N1C (centres undefined),–,inactive: -3.18%
Oc1c(C(c2ccccn2)N2CCC(Cc3ccccc3)CC2)cc(Cl)c2cccnc12 (centres undefined),"inconclusive [inhibitor, single point]",–
CCCn1c(COc2ccccc2OC)nc2ccccc21,"inconclusive [inhibitor, single point]",–
CC1(C)CC(=O)C2=C(C1)Nc1cc(Cl)ccc1S2,–,inactive: -2.18%
O=C(OCC(=O)c1ccccc1Br)c1ccccn1,–,inactive: 20.9%
CCCCn1c(SCC(=O)NCc2ccco2)nc2ccc(N3CCOCC3)cc2c1=O,active: 17.8 µM,–
